{"source": "the supplement of paper PMC7726561", "note": "Whole data set: some 1,400 sequences, median “thermal melting temperature (Tm) of peptide-HLA complex” near 60, cut for the lowest 2% near 45. Some of the results follow.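 Note: cell lysates heated 10 min at 37–73 °C, remaining pHLA pulled down with pan-class I antibody, peptides quantified by DIA-MS versus 37 °C, Tm where half the complex is lost.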"}
{"target": "HLA-B*07:02", "assay": "thermal melting temperature (Tm) of peptide-HLA complex; higher = more thermostable pHLA complex", "settings": "C1R-B*07:02", "units": {"thermal melting temperature": "°C"}}
{"sequence": "LPRPVPLVA", "thermal melting temperature": 61.5}
{"sequence": "APAQTPAPAL", "thermal melting temperature": 56.9}
{"sequence": "KPKETVPTL", "thermal melting temperature": 54.3}
{"sequence": "SPGPSRPGL", "thermal melting temperature": 56.1}
{"sequence": "WPRAGAPGAL", "thermal melting temperature": 59.2}
{"sequence": "LPRGVLEGL", "thermal melting temperature": 62.8}
{"sequence": "TIASQRLTPL", "thermal melting temperature": 59.5}
{"sequence": "LPDVPRIFL", "thermal melting temperature": 59.3}
{"sequence": "IPKSAVGEL", "thermal melting temperature": 58.3}
{"sequence": "SPISHFLDL", "thermal melting temperature": 63.1}
{"sequence": "SPSNTRYLFL", "thermal melting temperature": 63.2}
{"sequence": "APNYRLKSL", "thermal melting temperature": 62.1}
{"sequence": "VPYKVPAGVSL", "thermal melting temperature": 62.1}
{"sequence": "GPAIERMGL", "thermal melting temperature": 61.1}
{"sequence": "TPAVGRLEV", "thermal melting temperature": 60.6}
{"sequence": "YPAPGLKTFL", "thermal melting temperature": 60.3}
{"sequence": "GPRNVLLFL", "thermal melting temperature": 55.1}
{"sequence": "FPRSVVEFL", "thermal melting temperature": 62}
{"sequence": "SPWTGRFYSL", "thermal melting temperature": 56.7}
{"sequence": "SPRGAGYLF", "thermal melting temperature": 63}
{"sequence": "SPNTAGLRSL", "thermal melting temperature": 53.9}
{"sequence": "VPRPPSNPP", "thermal melting temperature": 56.4}
{"sequence": "APDSQRLKL", "thermal melting temperature": 59}
{"sequence": "KPAQFATTVL", "thermal melting temperature": 60.1}
{"sequence": "RPAAGFVAGL", "thermal melting temperature": 57}
{"sequence": "VPQGSKLEL", "thermal melting temperature": 57.7}
{"sequence": "IPDLKVGTL", "thermal melting temperature": 46.6}
{"sequence": "VPHPNWPNHTL", "thermal melting temperature": 58.2}
{"sequence": "TPAVGPPL", "thermal melting temperature": 63.6}
{"sequence": "NPRFGGKEL", "thermal melting temperature": 56.2}
{"sequence": "TPRKPVLSV", "thermal melting temperature": 61.6}
{"sequence": "WPKDVGIVA", "thermal melting temperature": 61.3}
{"sequence": "LPSTLRTLEL", "thermal melting temperature": 61.4}
{"sequence": "MPQGNPLLL", "thermal melting temperature": 62.6}
{"sequence": "APAPRPSLL", "thermal melting temperature": 60.1}
{"sequence": "APPGVRGAL", "thermal melting temperature": 55.6}
{"sequence": "HPISNNNSL", "thermal melting temperature": 41.6}
{"sequence": "YPRLGGFVM", "thermal melting temperature": 62.7}
{"sequence": "FPRPVTVEP", "thermal melting temperature": 57.1}
{"sequence": "SPAPDPRAL", "thermal melting temperature": 58.7}
{"sequence": "QPTVRITEL", "thermal melting temperature": 59.3}
{"sequence": "LPGISREAL", "thermal melting temperature": 41.3}
{"sequence": "SPLHLAAEL", "thermal melting temperature": 50.2}
{"sequence": "RPNGTKVAVL", "thermal melting temperature": 60.1}
{"sequence": "MPSLKHIVEL", "thermal melting temperature": 59.9}
{"sequence": "RPSQNLLQL", "thermal melting temperature": 61.3}
{"sequence": "YPGAERNLL", "thermal melting temperature": 60.8}
{"sequence": "QPAAQRGLVLL", "thermal melting temperature": 61.3}
{"sequence": "SPFFERSGL", "thermal melting temperature": 62.7}
{"sequence": "SPYPGLRLISL", "thermal melting temperature": 62.1}
{"sequence": "APRPLQPYL", "thermal melting temperature": 60.9}
{"sequence": "RPSQFPHSL", "thermal melting temperature": 56.4}
{"sequence": "LPKSHLEPSL", "thermal melting temperature": 50.2}
{"sequence": "RPKAQPTTL", "thermal melting temperature": 58}
{"sequence": "HPRGGVIQSV", "thermal melting temperature": 50.4}
{"sequence": "HPNEGALVL", "thermal melting temperature": 57.4}
